# In a collection of fitness landscapes (doi:10.1016/j.celrep.2020.107928):
# The full ranking holds about 81,000 sequences; the median of “one-hybrid fitness for binding NBS DNA” is about -0.1, and the highest 2% start at about 0.36. Some of the results follow.
# B1: Caulobacter ParB omega fusion; a variant is named by its letters at X, in order, B8GW30 (parent)
# chain: MESVVVGEPGMSEGRRGLGRGLSALLGEVDAAPAQAPGEQLGGSREAPIEILQRNPDQPRRTFREEDLEDLSNSIREKGVLQPILVRPSPDTAGEYQIVAGERAWRAAQRAGLKTVPIMVRELDDLAVLEIGIIENVQRADLNVLEEALSYKVLMEKFERTQENIAQTIGKSXSHVANXMRLLXLPDEVQSYLVSGELTAXHARAIAAAADPVALAKQIIEGGLSVRETEALARKAPNLSAGKSKGGRPPRVKDTDTQALESDLSSVLGLDVSIDHRGSTGTLTITYATLEQLDDLCNRLTRGI
# Variants of: B1
# Assay: one-hybrid fitness for binding NBS DNA (the Noc-binding site; scaled: cognate 1, non-cognate 0); higher = stronger binding
# Conditions: with NBS DNA site
# Method in brief: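 Selection: bacterial one-hybrid in E. coli USO, HIS3 reporter with the site 19 bp from the promoter, 48 hours at 37°C on M9-minus-histidine plus 0.1 mM IPTG and 5 mM 3-AT. Libraries were Caulobacter ParB with four randomised specificity codons, sequenced on Illumina before and after selection. Fitness is the rescaled log change in variant-to-wild-type read ratio, anchored to the cognate and non-cognate sites.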
row,Variant,one-hybrid fitness for binding NBS DNA
1,CGAK,≤ 0.2
2,WRLC,≤ 0.2
3,REWM,≤ 0.2
4,PAIN,≤ 0.2
5,LRLN,≤ 0.2
6,SMPV,≤ 0.2
7,FHAY,≤ 0.2
8,RFML,≤ 0.2
9,YMTS,≤ 0.2
10,HCCE,≤ 0.2
11,WPSW,≤ 0.2
12,WYHF,≤ 0.2
13,EQYR,≤ 0.2
14,GRCC,≤ 0.2
15,RIGE,≤ 0.2
16,NSKM,≤ 0.2
17,AKFM,≤ 0.2
18,TELR,≤ 0.2
19,ALSV,≤ 0.2
20,EQAY,≤ 0.2
21,KEKT,≤ 0.2
22,PYLN,≤ 0.2
23,GHKS,≤ 0.2
24,GQWS,≤ 0.2

row,Variant,one-hybrid fitness for binding NBS DNA
1,TLKS,≤ 0.2
2,ASVS,≤ 0.2
3,KWQG,≤ 0.2
4,QMNI,≤ 0.2
5,WRNS,≤ 0.2
6,TMCL,≤ 0.2
7,RKMM,≤ 0.2
8,VNLS,≤ 0.2
9,QVIK,≤ 0.2
10,FLRG,≤ 0.2
11,QGAF,≤ 0.2
12,RMLL,≤ 0.2
13,RKVK,≤ 0.2
14,VWYS,≤ 0.2
15,SRCC,≤ 0.2
16,QRND,0.306
17,LGSE,≤ 0.2
18,KKHC,≤ 0.2
19,LKCG,≤ 0.2
20,TRNE,≤ 0.2
21,RQGY,≤ 0.2
22,PLML,≤ 0.2
23,MHMV,≤ 0.2
24,WILC,≤ 0.2

row,Variant,one-hybrid fitness for binding NBS DNA
1,QIDS,≤ 0.2
2,KSRD,≤ 0.2
3,RYMI,≤ 0.2
4,PDHT,≤ 0.2
5,VIQS,≤ 0.2
6,ACPT,≤ 0.2
7,YTYG,≤ 0.2
8,QRNY,0.556
9,SKQG,≤ 0.2
10,NTNR,≤ 0.2
11,IMTY,≤ 0.2
12,VDAG,≤ 0.2
13,QCEI,≤ 0.2
14,WNLS,≤ 0.2
15,LITA,≤ 0.2
16,LNMR,≤ 0.2
17,QDDT,≤ 0.2
18,PIRY,≤ 0.2
19,PPCQ,≤ 0.2
20,KSKG,≤ 0.2
21,GDRF,≤ 0.2
22,TVPQ,≤ 0.2
23,IAWT,≤ 0.2
24,WKGG,≤ 0.2

row,Variant,one-hybrid fitness for binding NBS DNA
1,VYVG,≤ 0.2
2,GQHA,≤ 0.2
3,ATHV,≤ 0.2
4,LRPG,≤ 0.2
5,VGHR,≤ 0.2
6,LDQC,≤ 0.2
7,SSSH,≤ 0.2
8,RFKE,≤ 0.2
9,DSRY,≤ 0.2
10,RIKR,0.675
11,NQTL,≤ 0.2
12,APLE,≤ 0.2
13,CPNC,≤ 0.2
14,RFYD,≤ 0.2
15,SADS,≤ 0.2
16,SGHC,≤ 0.2
17,NLPV,≤ 0.2
18,AVIS,≤ 0.2
19,YAEM,≤ 0.2
20,GSCL,≤ 0.2
21,SHGH,≤ 0.2
22,YHMS,≤ 0.2
23,ADYI,≤ 0.2
24,WCVW,≤ 0.2

row,Variant,one-hybrid fitness for binding NBS DNA
1,PQFS,≤ 0.2
2,MMMT,≤ 0.2
3,KPHS,≤ 0.2
4,NTCC,≤ 0.2
5,YNYR,≤ 0.2
6,HLCC,≤ 0.2
7,SHWL,≤ 0.2
8,MEYS,≤ 0.2
9,DYCT,≤ 0.2
10,LPNI,≤ 0.2
11,KRVL,≤ 0.2
12,DVNY,≤ 0.2
13,VYTV,≤ 0.2
14,QIYG,≤ 0.2
15,HNPV,≤ 0.2
16,AWCG,≤ 0.2
17,AEHG,≤ 0.2
18,TNTK,≤ 0.2
19,RYPD,≤ 0.2
20,VPPA,≤ 0.2
21,APQL,≤ 0.2
22,WFSD,≤ 0.2
23,TTLM,≤ 0.2
24,IQTP,≤ 0.2

row,Variant,one-hybrid fitness for binding NBS DNA
1,RKFC,≤ 0.2
2,TPHR,≤ 0.2
3,PPIY,≤ 0.2
4,YLQR,≤ 0.2
5,QFQV,0.244
6,GRAG,≤ 0.2
7,QNNQ,≤ 0.2
8,LNCF,≤ 0.2
9,NQHR,≤ 0.2
10,VLMC,≤ 0.2
11,YGVS,≤ 0.2
12,KMNG,≤ 0.2
13,TNKR,≤ 0.2
14,TAPN,≤ 0.2
15,NMNC,≤ 0.2
16,TSSR,0.276
17,DVAW,≤ 0.2
18,ETNT,≤ 0.2
19,TKTG,≤ 0.2
20,CSDI,≤ 0.2
21,HTHV,≤ 0.2
22,QTYT,0.572
23,QLTF,≤ 0.2
24,PVLW,≤ 0.2

row,Variant,one-hybrid fitness for binding NBS DNA
1,TNRS,≤ 0.2
2,THVE,≤ 0.2
3,QYWE,≤ 0.2
4,RPWY,≤ 0.2
5,ESSS,≤ 0.2
6,KATK,≤ 0.2
7,HLKV,≤ 0.2
8,TSMI,≤ 0.2
9,ITSM,≤ 0.2
10,VPNI,≤ 0.2
11,GQAK,≤ 0.2
12,GALD,≤ 0.2
13,GPPT,≤ 0.2
14,VCCC,≤ 0.2
15,MLLR,≤ 0.2
16,KDPC,≤ 0.2
17,RGTI,≤ 0.2
18,DMGP,≤ 0.2
19,NPTL,≤ 0.2
20,TNPW,≤ 0.2
21,PCYN,≤ 0.2
22,GQPS,≤ 0.2
23,RQPS,≤ 0.2
24,QNKY,≤ 0.2

row,Variant,one-hybrid fitness for binding NBS DNA
1,QNFW,≤ 0.2
2,TVAY,≤ 0.2
3,WAQS,≤ 0.2
4,YEPL,≤ 0.2
5,HHII,≤ 0.2
6,QRGD,0.293
7,HDMR,≤ 0.2
8,QRFL,≤ 0.2
9,PTLD,≤ 0.2
10,RKNM,≤ 0.2
11,FPPG,≤ 0.2
12,PKAV,≤ 0.2
13,AQAY,≤ 0.2
14,MKKT,≤ 0.2
15,PPAH,≤ 0.2
16,SYGV,≤ 0.2
17,HQTT,≤ 0.2
18,SLDA,≤ 0.2
19,NCPS,≤ 0.2
20,ASQN,≤ 0.2
21,LYLM,≤ 0.2
22,RIAR,0.384
23,VCQP,≤ 0.2
24,PTIE,≤ 0.2

row,Variant,one-hybrid fitness for binding NBS DNA
1,WNPT,≤ 0.2
2,NCII,≤ 0.2
3,QGVG,≤ 0.2
4,NSES,≤ 0.2
5,RYND,≤ 0.2
6,WYQL,≤ 0.2
7,CMSG,≤ 0.2
8,VRCS,≤ 0.2
9,SHPP,≤ 0.2
10,ALMK,≤ 0.2
11,ITHT,≤ 0.2
12,RQCV,≤ 0.2
13,YQGS,≤ 0.2
14,AYTV,≤ 0.2
15,VSES,≤ 0.2
16,GVLC,≤ 0.2
17,RRAI,≤ 0.2
18,SEFT,≤ 0.2
19,HFLP,≤ 0.2
20,RYCM,≤ 0.2
21,APGR,≤ 0.2
22,NCTN,≤ 0.2
23,KRCH,≤ 0.2
24,ILAS,≤ 0.2

row,Variant,one-hybrid fitness for binding NBS DNA
1,GACG,≤ 0.2
2,NGQG,≤ 0.2
3,TLYY,≤ 0.2
4,APYP,≤ 0.2
5,ALLT,≤ 0.2
6,VRAA,≤ 0.2
7,EWGS,≤ 0.2
8,ITLL,≤ 0.2
9,IPGT,≤ 0.2
10,QPMD,≤ 0.2
11,RYTA,≤ 0.2
12,RTIT,0.352
13,RMHD,≤ 0.2
14,RHEE,≤ 0.2
15,ADCW,≤ 0.2
16,SRRP,≤ 0.2
17,SGQT,≤ 0.2
18,QGYC,≤ 0.2
19,HLDT,≤ 0.2
20,PIKL,≤ 0.2
21,FAPD,≤ 0.2
22,RKFL,≤ 0.2
23,DCMS,≤ 0.2
24,SQST,≤ 0.2

row,Variant,one-hybrid fitness for binding NBS DNA
1,RMGF,≤ 0.2
2,DGWN,≤ 0.2
3,VGSN,≤ 0.2
4,QAGI,≤ 0.2
5,NIPR,≤ 0.2
6,LLTQ,≤ 0.2
7,WISH,≤ 0.2
8,ARRS,≤ 0.2
9,INGE,≤ 0.2
10,RKIV,≤ 0.2
11,WVST,≤ 0.2
12,SACQ,≤ 0.2
13,VSHQ,≤ 0.2
14,YNEP,≤ 0.2
15,HATR,≤ 0.2
16,SPML,≤ 0.2
17,YIKE,≤ 0.2
18,PMNN,≤ 0.2
19,GAID,≤ 0.2
20,KHHR,≤ 0.2
21,CAQR,≤ 0.2
22,WYYF,≤ 0.2
23,QTMY,0.232
24,WGRG,≤ 0.2

row,Variant,one-hybrid fitness for binding NBS DNA
1,LAPC,≤ 0.2
2,RIFM,≤ 0.2
3,RWRH,≤ 0.2
4,YPVD,≤ 0.2
5,QNVI,≤ 0.2
6,AGNM,≤ 0.2
7,WWTF,≤ 0.2
8,DPHR,≤ 0.2
9,CPAC,≤ 0.2
10,HNGS,≤ 0.2
11,PPKW,≤ 0.2
12,EKGY,≤ 0.2
13,QCAY,0.21
14,HTYC,≤ 0.2
15,TPPI,≤ 0.2
16,WICV,≤ 0.2
17,QTIN,≤ 0.2
18,EMVW,≤ 0.2
19,CTML,≤ 0.2
20,SLKT,≤ 0.2
21,LQNN,≤ 0.2
22,LAHV,≤ 0.2
23,PCLV,≤ 0.2
24,HLTV,≤ 0.2

row,Variant,one-hybrid fitness for binding NBS DNA
1,GREC,≤ 0.2
2,LQPF,≤ 0.2
3,MTYS,≤ 0.2
4,TISQ,≤ 0.2
5,PEHI,≤ 0.2
6,WRAH,≤ 0.2
7,ETPG,≤ 0.2
8,HASN,≤ 0.2
9,PYKS,≤ 0.2
10,ASFN,≤ 0.2
11,RAPL,≤ 0.2
12,LPSK,≤ 0.2
13,MTDY,≤ 0.2
14,PIPF,≤ 0.2
15,DPTF,≤ 0.2
16,AQDE,≤ 0.2
17,SCIC,≤ 0.2
18,AYPA,≤ 0.2
